In all, about 33,000 sequences were measured (“E-score (-0.5 to 0.5)”: median about -0.011, highest 2% from about 0.28 on). The list shows a part of the results.

The assay addresses T1, Gcr1 (UniProt P07261).
T1 sequence: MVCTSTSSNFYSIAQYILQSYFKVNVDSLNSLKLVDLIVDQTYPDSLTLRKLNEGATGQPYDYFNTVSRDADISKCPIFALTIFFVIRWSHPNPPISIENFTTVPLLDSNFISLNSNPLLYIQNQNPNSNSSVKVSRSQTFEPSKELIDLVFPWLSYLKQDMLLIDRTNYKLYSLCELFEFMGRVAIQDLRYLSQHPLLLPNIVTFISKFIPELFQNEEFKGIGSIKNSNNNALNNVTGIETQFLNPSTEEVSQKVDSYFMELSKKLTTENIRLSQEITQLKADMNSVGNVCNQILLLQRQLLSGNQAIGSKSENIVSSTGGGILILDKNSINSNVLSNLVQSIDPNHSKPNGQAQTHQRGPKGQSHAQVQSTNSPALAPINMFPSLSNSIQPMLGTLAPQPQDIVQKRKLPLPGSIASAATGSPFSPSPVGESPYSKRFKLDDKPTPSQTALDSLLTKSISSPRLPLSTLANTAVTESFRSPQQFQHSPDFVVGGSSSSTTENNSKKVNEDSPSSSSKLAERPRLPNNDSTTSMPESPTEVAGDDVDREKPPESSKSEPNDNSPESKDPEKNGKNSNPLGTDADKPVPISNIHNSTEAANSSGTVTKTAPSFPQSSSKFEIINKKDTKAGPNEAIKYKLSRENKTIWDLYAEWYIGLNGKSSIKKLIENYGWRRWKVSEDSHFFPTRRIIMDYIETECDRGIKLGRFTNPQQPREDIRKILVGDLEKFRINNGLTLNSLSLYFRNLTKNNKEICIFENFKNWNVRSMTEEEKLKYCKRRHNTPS
Briefly: PBM E-score (8-mer binding enrichment) (E-score (-0.5 to 0.5)); higher = stronger / more preferred TF binding; most listed sequences are background and not binding sites. The settings on record: protein concentration: 100 nM; construct: GST-full length. The method in brief: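 For each ungapped eight-base word taken together with its reverse complement, the Universal PBM Analysis Suite assigned an E-score. Binding data came from GST-tagged yeast transcription factors, applied at about 100-200 nM, on universal all-10-mer Agilent arrays made double-stranded by primer extension. Fluorescent anti-GST marked bound protein, and scans were normalised with masliner.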
GCCGAGAA: the “PBM E-score” value worked out at 0.246.

Take AGTTTCTA: the “PBM E-score” value turned out to be 0.0364. For GGTCTAAC the value was -0.2.

Take CTAGCGCC: the “PBM E-score” value stood at 0.0934. As for GCCTGGTA, the figure is -0.0802; as for ACCACACG, 0.00077; as for CATGGAGG, -0.294. As for GTAGAGAC, the figure is -0.173. For AACCAACT the value was 0.0546.

Regarding CACTACCA, the “PBM E-score” value was -0.0446. Regarding AAGTGTGC, the “PBM E-score” value was -0.187. For GCTGTTAC the value was -0.0893; for CAGCGTGG, -0.133; for CCTTTTGA, 0.0317. With ACGCATCC, the “PBM E-score” value is 0.311. For ATTTGGTC the value was 0.134. For ACATAACC the value was -0.183; for CCACGTGG, -0.0825; for ACCCACGC, 0.00745.

As for CACCTTGA, the “PBM E-score” value is -0.0636. For TTCGAGAA the value was 0.0625.

GGCGGCTA: the “PBM E-score” value came out at 0.0757.

Consider CCTCGCCA, for which the “PBM E-score” value was -0.0884. As for AGATCCTA, the figure is 0.158. Consider AGACGCAC, for which the “PBM E-score” value is 0.115.

For GTGGTCGA, the “PBM E-score” value is -0.0539. For CCGTAAGC the value was -0.00669; for ACAAATCC, -0.0939. As for AACACGGG, the figure is -0.00664. For GGGTCATA the value was -0.257; for ATCCAAGC, -0.159; for CATCTACA, -0.0674. AAGCAAGT: the “PBM E-score” value was -0.23.

On to CCCACTAC, for which the “PBM E-score” value was determined as 0.187. Turning to ATAGACTA, the “PBM E-score” value is -0.0574. For GCATCAAA the value was -0.0446.

As to AAGACTAC, the “PBM E-score” value was -0.0723. CCACGTGC: the “PBM E-score” value is -0.0929.

For GACTGGCC, the “PBM E-score” value was -0.151.

In the case of ACACTCAC, the “PBM E-score” value is -0.209. As for ACTCTTAA, the figure is -0.0551; as for ACTCATGC, 0.00533; as for TAACGGCA, 0.0911. As for AACCTGCG, the figure is -0.0911; as for CCGAGTCG, -0.238. Regarding AAGTGGTG, the “PBM E-score” value came to 0.281. For CAGCCAAA the value was 0.154.

For CGCTTTCC, the “PBM E-score” value is -0.0681. For AAATTGAG the value was 0.163; for ATTAGCGG, 0.128; for CGTTTAGC, -0.142. As for CTAGGTTA, the figure is -0.0773; as for GAGTACAC, -0.0685; as for GTGGAAAC, 0.0791. As for CATAAACA, the figure is 0.0805; as for ACAGGTCT, -0.122; as for AGCTAATA, 0.0193. Turning to CATCGGAA, the “PBM E-score” value is 0.0772. As for AATGCACA, the figure is -0.117. As for ATAACCGC, the figure is -0.119. For ATCAGGCG the value was 0.0128. As to AACCCTTG, the “PBM E-score” value is -0.221.

As for GAGGTAGA, the “PBM E-score” value was -0.303. As for CTTTAGTC, the figure is 0.0272; as for ATGCCGCG, 0.0711; as for CCTCATCG, -0.243. As for CGAATGCC, the figure is -0.132. As for CGCAACCC, the figure is 0.0713; as for CTGTCAGC, -0.0401.

With ATCGAGGG, the “PBM E-score” value is -0.169. As for ACTACTGG, the figure is 0.139. For GACTGGAC the value was 0.0539; for CTAGACTA, 0.0904; for CTTAAACA, -0.09. As for CTAGGGGC, the figure is -0.082; as for GCCAGTAC, -0.101; as for GGACCATA, 0.0965. Regarding GTGCGGAA, the “PBM E-score” value came out at 0.0136. For GATTCAAC the value was -0.112. As for ATGACCAC, the figure is -0.153; as for AATTCCGC, 0.178; as for AAAAGCAT, 0.135. For CACAGATA the value was 0.0234. Regarding ACGCATTC, the “PBM E-score” value is 0.0779. In the case of ACTTCACG, the “PBM E-score” value is -0.138.

For AGCGACGC, the “PBM E-score” value is -0.0077. For AAACACCG the value was -0.0471. As for ACGATAGC, the figure is -0.109; as for ACTTTAGA, -0.00396.

With CAGTCTGC, the “PBM E-score” value was -0.144. As for AGGGACAC, the figure is -0.00778. As for GGGGCTTA, the figure is -0.192.

On to CGCTTAGC, for which the “PBM E-score” value is -0.0367.

ACGAATAT: the “PBM E-score” value was 0.115.
